# In the supplement of paper PMC8728848:
# The other results are listed elsewhere or left out.
# Experiments:
# Assay in all cases: glycan array binding signal (z-score within array); higher = stronger binding
# Details in all cases: glycan notation: IUPAC condensed, linker removed
# Fuc(a1-2)Gal = target: Fuc(a1-2)Gal
# Procedure, shortened: (§1)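 Glycan array data were curated from 3228 arrays in the Consortium for Functional Glycomics database and kept only where the protein sequence was available. Glycan names were converted to IUPAC-condensed notation, and columns mapping to the same glycan were averaged. The binding signal is a within-array Z-score, averaged across arrays of the same protein sequence at different concentrations or buffers and across linkers. Negative Z-scores can be read as non-binding.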
# Fuc(a1-2)Gal(b1-3)GalNAc = target: Fuc(a1-2)Gal(b1-3)GalNAc
# Procedure, shortened: as §1
# [1] = target: Fuc(a1-2)Gal(b1-3)GalNAc(a1-3)[Fuc(a1-2)]Gal(b1-4)Glc
# Procedure, shortened: as §1
# [2] = target: Fuc(a1-2)Gal(b1-3)GalNAc(a1-3)[Fuc(a1-2)]Gal(b1-4)GlcNAc
# Procedure, shortened: as §1
# [3] = target: Fuc(a1-2)Gal(b1-3)GalNAc(b1-3)Gal
# Procedure, shortened: as §1
# [4] = target: Fuc(a1-2)Gal(b1-3)GalNAc(b1-3)Gal(a1-4)Gal(b1-4)Glc
# Procedure, shortened: as §1
# [5] = target: Fuc(a1-2)Gal(b1-3)GalNAc(b1-4)[Neu5Ac(a2-3)]Gal(b1-4)Glc
# Procedure, shortened: as §1
# Fuc(a1-2)Gal(b1-3)GlcNAc = target: Fuc(a1-2)Gal(b1-3)GlcNAc
# Procedure, shortened: as §1
# [6] = target: Fuc(a1-2)Gal(b1-3)GlcNAc(b1-2)Man(a1-3)[Fuc(a1-2)Gal(b1-3)GlcNAc(b1-2)Man(a1-6)]Man(b1-4)GlcNAc(b1-4)GlcNAc
# Procedure, shortened: as §1
# [7] = target: Fuc(a1-2)Gal(b1-3)GlcNAc(b1-2)Man(a1-3)[Fuc(a1-2)Gal(b1-3)GlcNAc(b1-2)Man(a1-6)]Man(b1-4)GlcNAc(b1-4)[Fuc(a1-6)]GlcNAc
# Procedure, shortened: as §1
# [8] = target: Fuc(a1-2)Gal(b1-3)GlcNAc(b1-3)Gal(b1-4)Glc
# Procedure, shortened: as §1
# [9] = target: Fuc(a1-2)Gal(b1-3)GlcNAc(b1-3)GalNAc
# Procedure, shortened: as §1
# [10] = target: Fuc(a1-2)Gal(b1-3)GlcNAc(b1-3)[Fuc(a1-2)Gal(b1-3)GlcNAc(b1-6)]GalNAc
# Procedure, shortened: as §1
# [11] = target: Fuc(a1-2)Gal(b1-3)GlcNAc(b1-3)[Fuc(a1-3)[Gal(b1-4)]GlcNAc(b1-6)]Gal(b1-4)Glc
# Procedure, shortened: as §1
# [12] = target: Fuc(a1-2)Gal(b1-3)GlcNAc(b1-3)[Gal(b1-4)GlcNAc(b1-6)]Gal(b1-4)Glc
# Procedure, shortened: as §1
# [13] = target: Fuc(a1-2)Gal(b1-3)GlcNAc(b1-3)[Gal(b1-4)[Fuc(a1-3)]GlcNAc(b1-6)]Gal(b1-4)Glc
# Procedure, shortened: as §1
# [14] = target: Fuc(a1-2)Gal(b1-3)GlcNAc(b1-3)[Neu5Ac(a2-6)Gal(b1-4)GlcNAc(b1-6)]Gal(b1-4)Glc
# Procedure, shortened: as §1
# [15] = target: Fuc(a1-2)Gal(b1-3)GlcNAc6S
# Procedure, shortened: as §1
# [16] = target: Fuc(a1-2)Gal(b1-3)[Fuc(a1-4)]GlcNAc
# Procedure, shortened: as §1
# [17] = target: Fuc(a1-2)Gal(b1-3)[Fuc(a1-4)]GlcNAc(b1-2)Man(a1-3)[Fuc(a1-2)Gal(b1-3)[Fuc(a1-4)]GlcNAc(b1-2)Man(a1-6)]Man(b1-4)GlcNAc(b1-4)GlcNAc
# Procedure, shortened: as §1
# [18] = target: Fuc(a1-2)Gal(b1-3)[Fuc(a1-4)]GlcNAc(b1-2)Man(a1-6)[Fuc(a1-2)Gal(b1-3)[Fuc(a1-4)]GlcNAc(b1-2)Man(a1-3)]Man(b1-4)GlcNAc(b1-4)[Fuc(a1-6)]GlcNAc
# Procedure, shortened: as §1
# [19] = target: Fuc(a1-2)Gal(b1-3)[Fuc(a1-4)]GlcNAc(b1-3)[Fuc(a1-3)[Gal(b1-4)]GlcNAc(b1-6)]Gal(b1-4)Glc
# Procedure, shortened: as §1
# [20] = target: Fuc(a1-2)Gal(b1-3)[Fuc(a1-4)]GlcNAc(b1-3)[Gal(b1-4)GlcNAc(b1-6)]Gal(b1-4)Glc
# Procedure, shortened: as §1
# Fuc(a1-2)Gal(b1-4)Glc = target: Fuc(a1-2)Gal(b1-4)Glc
# Procedure, shortened: as §1
# Fuc(a1-2)Gal(b1-4)Glc6S = target: Fuc(a1-2)Gal(b1-4)Glc6S
# Procedure, shortened: as §1
# Fuc(a1-2)Gal(b1-4)GlcNAc = target: Fuc(a1-2)Gal(b1-4)GlcNAc
# Procedure, shortened: as §1
# [21] = target: Fuc(a1-2)Gal(b1-4)GlcNAc(b1-2)Man
# Procedure, shortened: as §1
# [22] = target: Fuc(a1-2)Gal(b1-4)GlcNAc(b1-2)Man(a1-3)[Fuc(a1-2)Gal(b1-4)GlcNAc(b1-2)Man(a1-6)]Man(b1-4)GlcNAc(b1-4)GlcNAc
# Procedure, shortened: as §1
# [23] = target: Fuc(a1-2)Gal(b1-4)GlcNAc(b1-2)Man(a1-3)[Fuc(a1-2)Gal(b1-4)GlcNAc(b1-2)Man(a1-6)]Man(b1-4)GlcNAc(b1-4)[Fuc(a1-6)]GlcNAc
# Procedure, shortened: as §1
# [24] = target: Fuc(a1-2)Gal(b1-4)GlcNAc(b1-2)[Fuc(a1-2)Gal(b1-4)GlcNAc(b1-4)]Man(a1-3)[Fuc(a1-2)Gal(b1-4)GlcNAc(b1-2)Man(a1-6)]Man(b1-4)GlcNAc(b1-4)GlcNAc
# Procedure, shortened: as §1
# [25] = target: Fuc(a1-2)Gal(b1-4)GlcNAc(b1-3)Gal(b1-4)GlcNAc
# Procedure, shortened: as §1
# [26] = target: Fuc(a1-2)Gal(b1-4)GlcNAc(b1-3)Gal(b1-4)GlcNAc(b1-3)Gal(b1-4)GlcNAc
# Procedure, shortened: as §1
# [27] = target: Fuc(a1-2)Gal(b1-4)GlcNAc(b1-3)GalNAc
# Procedure, shortened: as §1
# [28] = target: Fuc(a1-2)Gal(b1-4)GlcNAc(b1-3)[Fuc(a1-2)Gal(b1-4)GlcNAc(b1-6)]GalNAc
# Procedure, shortened: as §1
# [29] = target: Fuc(a1-2)Gal(b1-4)GlcNAc(b1-6)GalNAc
# Procedure, shortened: as §1
# [30] = target: Fuc(a1-2)Gal(b1-4)GlcNAc6S
# Procedure, shortened: as §1
# [31] = target: Fuc(a1-2)Gal(b1-4)[Fuc(a1-3)]GlcNAc
# Procedure, shortened: as §1
# [32] = target: Fuc(a1-2)Gal(b1-4)[Fuc(a1-3)]GlcNAc(b1-2)Man(a1-3)[Fuc(a1-2)Gal(b1-4)[Fuc(a1-3)]GlcNAc(b1-2)Man(a1-6)]Man(b1-4)GlcNAc(b1-4)GlcNAc
# Procedure, shortened: as §1
# [33] = target: Fuc(a1-2)Gal(b1-4)[Fuc(a1-3)]GlcNAc(b1-2)Man(a1-6)[Fuc(a1-2)Gal(b1-4)[Fuc(a1-3)]GlcNAc(b1-2)Man(a1-3)]Man(b1-4)GlcNAc(b1-4)[Fuc(a1-6)]GlcNAc
# Procedure, shortened: as §1
# [34] = target: Fuc(a1-2)Gal(b1-4)[Fuc(a1-3)]GlcNAc(b1-2)[Fuc(a1-2)Gal(b1-4)[Fuc(a1-3)]GlcNAc(b1-4)]Man(a1-3)[Fuc(a1-2)Gal(b1-4)[Fuc(a1-3)]GlcNAc(b1-2)Man(a1-6)]Man(b1-4)GlcNAc(b1-4)GlcNAc
# Procedure, shortened: as §1
# [35] = target: Fuc(a1-2)Gal(b1-4)[Fuc(a1-3)]GlcNAc(b1-3)Gal(b1-4)[Fuc(a1-3)]GlcNAc
# Procedure, shortened: as §1
# [36] = target: Fuc(a1-2)Gal(b1-4)[Fuc(a1-3)]GlcNAc(b1-3)Gal(b1-4)[Fuc(a1-3)]GlcNAc(b1-3)Gal(b1-4)[Fuc(a1-3)]GlcNAc
# Procedure, shortened: as §1
# [37] = target: Fuc(a1-2)Gal(b1-4)[Fuc(a1-3)]GlcNAc(b1-3)GalNAc
# Procedure, shortened: as §1
# [38] = target: Fuc(a1-2)Gal(b1-4)[Fuc(a1-3)]GlcNAc(b1-3)[Neu5Ac(a2-6)Gal(b1-4)GlcNAc(b1-6)]Gal(b1-4)Glc
# Procedure, shortened: as §1
# [39] = target: Fuc(a1-2)Gal6S(b1-3)GlcNAc
# Procedure, shortened: as §1
binder,measurement,setting,value
"Calsepa (Calystegia sepium), P93114 (protein) MAVPMDTISGPWGNNGGNFWSFRPVNKINQIVISYGGGGNNPIALTFSSTKADGSKDTITVGGGGPDSITGTEMVNIGTDEYLTGISGTFGIYLDNNVLRSITFTTNLKAHGPYGQKVGTPFSSANVVGNEIVGFLGRSGYYVDAIGTYNRHK",glycan array binding signal (z-score),Fuc(a1-2)Gal,-0.248
same,glycan array binding signal (z-score),Fuc(a1-2)Gal(b1-3)GalNAc,-0.215
same,glycan array binding signal (z-score),[1],-0.269
same,glycan array binding signal (z-score),[2],-0.276
same,glycan array binding signal (z-score),[3],-0.232
same,glycan array binding signal (z-score),[4],-0.254
same,glycan array binding signal (z-score),[5],-0.252
same,glycan array binding signal (z-score),Fuc(a1-2)Gal(b1-3)GlcNAc,-0.251
same,glycan array binding signal (z-score),[6],-0.215
same,glycan array binding signal (z-score),[7],-0.262
same,glycan array binding signal (z-score),[8],-0.244
same,glycan array binding signal (z-score),[9],-0.268
same,glycan array binding signal (z-score),[10],-0.266
same,glycan array binding signal (z-score),[11],-0.268
same,glycan array binding signal (z-score),[12],-0.277
same,glycan array binding signal (z-score),[13],-0.16
same,glycan array binding signal (z-score),[14],-0.269
same,glycan array binding signal (z-score),[15],-0.225
same,glycan array binding signal (z-score),[16],-0.241
same,glycan array binding signal (z-score),[17],-0.224
same,glycan array binding signal (z-score),[18],-0.265
same,glycan array binding signal (z-score),[19],-0.26
same,glycan array binding signal (z-score),[20],-0.222
same,glycan array binding signal (z-score),Fuc(a1-2)Gal(b1-4)Glc,-0.246
same,glycan array binding signal (z-score),Fuc(a1-2)Gal(b1-4)Glc6S,-0.242
same,glycan array binding signal (z-score),Fuc(a1-2)Gal(b1-4)GlcNAc,-0.249
same,glycan array binding signal (z-score),[21],-0.271
same,glycan array binding signal (z-score),[22],1.08
same,glycan array binding signal (z-score),[23],-0.242
same,glycan array binding signal (z-score),[24],-0.245
same,glycan array binding signal (z-score),[25],-0.248
same,glycan array binding signal (z-score),[26],-0.243
same,glycan array binding signal (z-score),[27],-0.267
same,glycan array binding signal (z-score),[28],-0.268
same,glycan array binding signal (z-score),[29],-0.26
same,glycan array binding signal (z-score),[30],-0.249
same,glycan array binding signal (z-score),[31],-0.246
same,glycan array binding signal (z-score),[32],-0.226
same,glycan array binding signal (z-score),[33],-0.267
same,glycan array binding signal (z-score),[34],-0.257
same,glycan array binding signal (z-score),[35],-0.252
same,glycan array binding signal (z-score),[36],-0.246
same,glycan array binding signal (z-score),[37],-0.26
same,glycan array binding signal (z-score),[38],-0.274
same,glycan array binding signal (z-score),[39],-0.274
